The results in this text go back to the supplement of paper PMC11417369.

± gives the standard deviation of the averaged measurements. Some of the results follow.

The test system of this assay is PfAP2-I AP2 domain 3 (GST-tagged). The experiment in a line: gcPBM binding intensity (ln(normalized median fluorescence intensity)); higher = stronger DNA binding. A digest of the protocol:
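The highest Masliner-normalised natural-log median intensity across replicate spots of either probe orientation is reported as binding intensity. GST-tagged P. falciparum DNA-binding domains expressed in E. coli were applied for 1 h to an Agilent 4 × 180k array of primer-extended double-stranded 36-bp intergenic genomic probes plus negative controls, and bound protein was detected with Alexa488 anti-GST antibody and scanned at 488 nm.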
Take AATTTCAAATTGTATGTGCACATGTAGAAGTACTTT: the “gcPBM binding intensity (ln)” value is 9.71 ± 0.28.

Take “GTGCCTTTAAAAAAAAGTACAAAAAAGAACGAATTA [XGTACX_site3714]”: the “gcPBM binding intensity (ln)” value was determined as 9.22 ± 0.29.

With “AAAAAAAAAAAAAGCACACACACATATGAGTATATA [CACACA_site4682]”, the “gcPBM binding intensity (ln)” value is 8.34 ± 0.35.

As for “TATATATATATATATTGTACATTTTTTTTTTTTTTT [XGTACX_site7891]”, the “gcPBM binding intensity (ln)” value turned out to be 9.45 ± 0.37.

For “TATGTAAAGAGTAAGGGTACATGTATAATACGGCTC [XGTACX_site1283]”, the “gcPBM binding intensity (ln)” value is 8.28 ± 0.9.

For the sequence “TTTTCATTAAATATATATGCATACCATATGTACATT [GTGCAC_negctrl_site539]”, the “gcPBM binding intensity (ln)” value turned out to be 8.05 ± 0.58.

In the case of “TTTAAAATATTTTCTTGTACGAAGGAACATTTCTTA [XGTACX_site4013]”, the “gcPBM binding intensity (ln)” value was found to be 7.67 ± 0.32.

Regarding “AAATACTATATCAAGCGTACTTATTTCATGGTAATA [XGTACX_site7878]”, the “gcPBM binding intensity (ln)” value is 7.61 ± 0.51.

For the sequence “TATTTAATTACATGAACACACATTATGTATTTTTAA [CACACA_site2962]”, the “gcPBM binding intensity (ln)” value was determined as 7.49 ± 0.52.

“TAAAAAAAAAAAACAAGTACATATATAAATATATAT [XGTACX_site7537]”: the “gcPBM binding intensity (ln)” value is 7.5 ± 0.45.

For the sequence “TTTTTATTTAATAATATATTAATCATATAAATAAAT [GTGCAC_negctrl_site210]”, the “gcPBM binding intensity (ln)” value turned out to be 7.6 ± 0.54.

Regarding “TATATTCTTATTATTGCATGCTGCACGAAGATTTTC [TGCATGCA_site831]”, the “gcPBM binding intensity (ln)” value is 9.32 ± 0.2.

Consider “ATAATAAATAAAATAACACACATATATAGATATATA [CACACA_site6224]”, for which the “gcPBM binding intensity (ln)” value is 7.53 ± 0.3.

Take “TTTATATAAAAAAATTGTACATATTTATTATAAACA [XGTACX_site2124]”: the “gcPBM binding intensity (ln)” value amounted to 7.58 ± 0.27.

For the sequence “TGTATGCATATTTGATGTACGCACATATACTAATTT [XGTACX_site3159]”, the “gcPBM binding intensity (ln)” value was found to be 8.43 ± 0.38.

With “TTTAATTATAAGATAACACACAAAAAAAATAAAATA [CACACA_site254]”, the “gcPBM binding intensity (ln)” value amounted to 7.96 ± 0.63.

As to “GTATGTTTGTTATGCACACAAATGCATCTTATTTCC [CACACA_site2690]”, the “gcPBM binding intensity (ln)” value was determined as 10.2 ± 0.16.

In the case of “ATTTCTCTATAGTAATGTACAAAAAAAAGGAAAAAG [XGTACX_site2757]”, the “gcPBM binding intensity (ln)” value is 7.84 ± 0.49.

For “CAAGAATAAAAATACAAGCACACATGTATGAAATAT [CACACA_site3214]”, the “gcPBM binding intensity (ln)” value was 7.88 ± 0.81.

As for “ACATAAAATAAATATACACACATATGTATTTATTAT [CACACA_site5648]”, the “gcPBM binding intensity (ln)” value stood at 7.62 ± 0.53.

On to “AAACCGAATTTACATGAATGTAAATTATGTTGTTTT [CACACA_negctrl_site1834]”, for which the “gcPBM binding intensity (ln)” value came to 7.2 ± 0.65.

Consider “TTATGGATAAATAAATGTACGTTAAGATAACACAAA [XGTACX_site4208]”, for which the “gcPBM binding intensity (ln)” value turned out to be 7.59 ± 0.38.

For the sequence “ATATACATATGTGTGTGTACTTATATCACATTTTTG [XGTACX_site3785]”, the “gcPBM binding intensity (ln)” value was found to be 7.88 ± 0.71.

As to “GTTTTTTTGTTTTAGTGTACCTAAAACTGCATGTAG [XGTACX_site294]”, the “gcPBM binding intensity (ln)” value was 8.47 ± 0.64.

On to “TCGACAAAGGCATATACACACATTTGTAACATAAAT [CACACA_site4471]”, for which the “gcPBM binding intensity (ln)” value amounted to 7.57 ± 0.46.

Consider “GCAGGATTGGTTCAAACACACATATTATATGACTAT [CACACA_site660]”, for which the “gcPBM binding intensity (ln)” value was determined as 7.79 ± 0.69.

Regarding “TTTTTTTTTTTTTTTGCACACACATAATAGGTACAA [CACACA_site3578]”, the “gcPBM binding intensity (ln)” value was found to be 9.43 ± 0.23.

Regarding “ATCTTATATGATCACACACACACGCACAAAACAGAA [CACACA_site4913]”, the “gcPBM binding intensity (ln)” value stood at 8.54 ± 0.57.

As for “TTAATAAATAAAAATGCACACAGTTAACATGTTGAA [CACACA_site1200]”, the “gcPBM binding intensity (ln)” value was found to be 8.57 ± 0.29.

Turning to “GCACATAAATATATGACACACACACCGATTATATAT [CACACA_site9003]”, the “gcPBM binding intensity (ln)” value was 7.92 ± 0.61.

As for “AAAAAAAAAAAAAAAACACACAAACATCAAATTATT [CACACA_site5083]”, the “gcPBM binding intensity (ln)” value turned out to be 8.65 ± 0.42.

On to “ATAATAATTTAATACATACACACGTATATCTTTTTT [CACACA_site2041]”, for which the “gcPBM binding intensity (ln)” value was found to be 7.67 ± 0.83.

Regarding “ATACAAAAAGTAAAAAGTACTTAACTAAATATATAA [XGTACX_site2335]”, the “gcPBM binding intensity (ln)” value stood at 7.61 ± 0.56.

For the sequence “TTTTCAATATATTAATGTACGAATACGCAAATAAGA [XGTACX_site1613]”, the “gcPBM binding intensity (ln)” value turned out to be 8.15 ± 0.35.

In the case of “TGTGTTCATCTATGCACACGCATATATATTATTGTT [CACACA_site5985]”, the “gcPBM binding intensity (ln)” value was found to be 8.8 ± 0.057.

For the sequence “TAATCGAAACAAAGAACATGCAAACATATACCTATA [TGCATGCA_site894]”, the “gcPBM binding intensity (ln)” value came out at 7.51 ± 0.54.

Take “CAAAATTTATGTAAAAGTACAAAAATATAGAAAGAT [XGTACX_site1122]”: the “gcPBM binding intensity (ln)” value worked out at 8.14 ± 0.59.

On to “AATATAATATAAGGATCACACACAAACACCCATATA [CACACA_site8084]”, for which the “gcPBM binding intensity (ln)” value came to 8.12 ± 0.18.

Take “TTTTATTCCTTCTTTGCACACGTTTAAAAATATATA [CACACA_site2899]”: the “gcPBM binding intensity (ln)” value came to 9.795 ± 0.007.

For “TAAGTTATATGTATATGTACTTATATATATATATAT [XGTACX_site5402]”, the “gcPBM binding intensity (ln)” value came to 9.16 ± 0.76.

Consider “ATTAAAAAAATTAAAAGTACACATATTTCAATGATA [XGTACX_site5606]”, for which the “gcPBM binding intensity (ln)” value was found to be 7.86 ± 0.32.

As for “AAAATTAAAAAGAACACACAAATATATCTATAATAA [CACACA_site7660]”, the “gcPBM binding intensity (ln)” value was found to be 7.47 ± 0.65.

Regarding “TAAAAAAAAAAAAAAACACACATATAAATATATATA [CACACA_site1243]”, the “gcPBM binding intensity (ln)” value was found to be 7.86 ± 0.53.

For “TTTATATATATATATATATATAATAAATGATACACA [TGCATGCA_negctrl_site392]”, the “gcPBM binding intensity (ln)” value is 7.88 ± 0.42.

With “TATTTTTTTTCTTATACACACCATGCATCAAACTAA [CACACA_site5208]”, the “gcPBM binding intensity (ln)” value was 8.37 ± 0.59.
